Data from PubChem BioAssay AID463173 (ICCB-Longwood Screening Facility, Harvard Medical School, 2010).
The whole screen tested about 52,000 compounds, of which about 1,700 (3.3%) were called active. No stated cut-off is given here; in the data, active means survival mostly below about 52% (no sharp cut-off); inactive means mostly above about 56%. Some of the results follow.

Each compound was assayed on Wild type (assay: S. aureus survival, RN4220 and DeltatarO strains – OD600, teichoic acid synthesis inhibitors, primary screen (AID 463173)). Details: S. aureus RN4220 wild type/DeltatarO growth, OD600, 18 h, stronger effect = lower value, screened at 18.75 µg/mL (by protocol).
With `O=C(Nc1cccc(O)c1)c1noc2c1CCc1ccccc1-2` the survival was inactive: 73%. `CCc1ccc(-n2c(=O)c3sc4ccccc4c3n(CC(=O)N3CCCC3)c2=O)cc1` was tested, and the survival was inactive: 83%. In the case of `O=C(CSc1nc2ccsc2c(=O)n1Cc1ccccc1Cl)NCc1ccc(F)cc1`, the survival is reported as inactive: 58%. For `Cc1c(Cl)cccc1NC(=O)Cn1cc(C(=O)c2cccs2)c2ccccc21`, the survival was inactive: 136%. For `c1ccc2c(c1)Nc1nc3ccccc3nc1N2`, the survival was inactive: 95%. For `Cc1nc(-c2cccc(NC(=O)Nc3ccccc3C(F)(F)F)c2)no1`, the survival was inactive: 134%. In the case of `CC(C)CN(CC(C)C)S(=O)(=O)c1ccc(C(=O)Nc2sc3c(c2C(N)=O)CC(C)(C)NC3(C)C)cc1`, the survival is reported as inactive: 85%. With `O=C(Nc1c2c(nn1-c1ccc(Cl)cc1)CS(=O)(=O)C2)c1cccc(F)c1` the survival was inactive: 66%. `CCc1ccc(NC(=O)CCCc2nnc3n(CC(C)C)c(=O)c4sccc4n23)cc1` was tested, and the survival was inactive: 103%. `CC(C)c1nn2c(=O)cc(COC(=O)c3ccccc3NC(=O)COc3ccccc3)nc2s1` was tested, and the survival was inactive: 70%. `COC(=O)c1ccc(C2c3c(-c4ccccc4O)n[nH]c3C(=O)N2Cc2ccncc2)cc1` (centres undefined) was tested, and the survival was inactive: 88%. In the case of `COc1ccc(-c2nc(CNS(=O)(=O)c3ccc(Br)cc3)cs2)cc1`, the survival is reported as inactive: 88%. `COc1cc(C(=O)N(CCc2ccccc2)C2CC3CCC(C2)N3C)cc(OC)c1OC` (centres undefined) was tested, and the survival was inactive: 104%. `CCC(=O)N1CCc2cc(OC)c(OC)cc2C1COc1ccccc1OC` (centres undefined) was tested, and the survival was inactive: 91%. With `Cc1cccc(OCc2ccc(-c3nc(C#N)c(NCc4cccnc4)o3)o2)c1` the survival was inactive: 102%. For `O=C(CSc1nc(-c2cccc(F)c2)[nH]c1-c1ccccc1)Nc1ccc2c(c1)OCCO2`, the survival was inactive: 118%. With `CC(=O)N1CCN(C2=NC(=O)C(=C3CCCCC3)S2)CC1` the survival was inactive: 112%. For `CCOc1ccccc1NC(=O)c1c(NCc2cccs2)sc2c1CCC(C)C2` (centres undefined), the survival was inactive: 119%. In the case of `COC(=O)Nc1ccc(S(=O)(=O)N(CCO)CCO)cc1`, the survival is reported as inactive: 99%. For `O=C(c1ccccc1)N(Cc1nc2ccccc2c(=O)[nH]1)C1CCCC1`, the survival was inactive: 117%. In the case of `Cc1nnc(NC(=O)CSc2nccn2Cc2ccc(F)cc2)s1`, the survival is reported as active: -2%. In the case of `CC(=O)Nc1ccc(S(=O)(=O)NCCc2cn3ccsc3n2)cc1`, the survival is reported as inactive: 72%. `COc1cc(NC(=O)CSc2nc(-c3ccco3)cc(C(F)(F)F)n2)cc(OC)c1OC` was tested, and the survival was inactive: 80%. With `CCc1cc(C(=O)NCc2ccccc2)no1` the survival was inactive: 63%. For `Cc1nnc(NC(=O)c2nc(SCc3ccccc3F)ncc2Cl)s1`, the survival was inactive: 94%. With `COc1ccccc1NC(=O)CN1C(=O)C2(SCC(=O)N2c2ccc(F)c(F)c2)c2ccccc21` (centres undefined) the survival was inactive: 72%. With `O=C(NCc1ccccc1)C(=O)Nc1ccc2nc3n(c(=O)c2c1)CCCCC3` the survival was inactive: 94%. `Cc1cc(C)nc(-n2nc(C)c3c2N(C)C(=O)CC3c2ccc(Cl)cc2)n1` (centres undefined) was tested, and the survival was inactive: 95%. `Cc1c(C(=O)Nc2cccc(Cl)c2)oc2ccc(S(=O)(=O)N3CCCCCC3)cc12` was tested, and the survival was inactive: 66%. In the case of `Cc1ccc(CN2COc3ccc4c(-c5ccccc5)cc(=O)oc4c3C2)cc1`, the survival is reported as inactive: 80%. For `CC(=O)Nc1nc(SCc2ccccc2Cl)n[nH]1`, the survival was inactive: 109%. With `CCOC(=O)c1sc(NC(=O)CSc2nnc(Cn3nnc4ccccc43)n2C)nc1C` the survival was inactive: 104%. In the case of `Cc1cc(-c2ccc(S(=O)(=O)Nc3ccccc3F)s2)on1`, the survival is reported as inactive: 85%. With `COC(=O)C1=C(C)NC(C)=C(C(=O)OC)C1C1CC=CCC1` (centres undefined) the survival was inactive: 109%. `CC(NC(=O)Cc1ccc(NC(=O)N2CCSc3ncccc32)cc1)c1ccccc1` (centres undefined) was tested, and the survival was inactive: 83%. With `CCCOc1ccc(C(=O)Nc2ccc(NC(=O)c3ccccc3)c(Br)c2)cc1` the survival was inactive: 136%. With `O=S(=O)(NCCc1ccccc1)c1ccc(S(=O)(=O)N2CCCCC2)cc1` the survival was inactive: 96%. With `O=C(Nc1ccc2oc(=O)ccc2c1)c1cccs1` the survival was inactive: 117%. In the case of `Cc1ccc(C)c(NC(=O)Cn2c(=O)n(CC3CCCO3)c(=O)c3ccccc32)c1` (centres undefined), the survival is reported as inactive: 119%. In the case of `CCN1CCN(c2ncnc3c2cnn3-c2ccc(C)c(C)c2)CC1`, the survival is reported as inactive: 99%. For `CC(=O)Nc1ccc(NC(=O)CSc2nc3ccccc3nc2N2CCCCC2)cc1`, the survival was inactive: 90%. `Cc1oc(CSCCSCc2cc(C(=O)O)c(C)o2)cc1C(=O)O` was tested, and the survival was inactive: 97%. `COc1ccc(C(=O)Nc2cc(C)c(O)c(-c3nc4ccccc4s3)c2)cc1OC` was tested, and the survival was inactive: 80%. For `O=C(CN1C(=O)COc2ccc(S(=O)(=O)NC3CCCC3)cc21)Nc1ccc(Cl)cc1`, the survival was inactive: 68%. For `CCOC(=O)c1[nH]c(C)c(C(=O)NC(CC)Cc2ccccc2)c1C` (centres undefined), the survival was inactive: 84%. In the case of `O=C(Nc1cccc(-c2cn3cccnc3n2)c1)c1cc(Br)ccc1Cl`, the survival is reported as inactive: 76%. In the case of `Cc1ccc2c(c1)N(CC(=O)NCCc1ccc(Cl)cc1)C(=O)c1cccnc1O2`, the survival is reported as inactive: 153%. In the case of `Cn1c(-n2cccc2)c(-c2c(-c3ccccc3)[nH]c3c2c(=O)[nH]c(=O)n3C)c(=O)[nH]c1=O`, the survival is reported as inactive: 93%. `COc1cccc(CNC(=O)c2ccc3c(c2)nc2n3CCOC2)c1` was tested, and the survival was inactive: 57%. In the case of `Cc1ccc(-c2nnn3c2nc(NCC(C)c2ccccc2)c2ccccc23)cc1` (centres undefined), the survival is reported as inactive: 92%. For `CCOc1ccc(CNC(=O)c2ccc(CS(=O)Cc3ccc(Cl)cc3)o2)cc1` (centres undefined), the survival was inactive: 79%. In the case of `CCN(Cc1ccccc1)C(=O)CN1C(=O)COc2ccc(S(=O)(=O)NC3CCCC3)cc21`, the survival is reported as inactive: 68%. `CCOC(=O)CSc1nc2sc3c(c2c(=O)n1-c1ccccc1)CC(C(C)C)OC3` (centres undefined) was tested, and the survival was inactive: 108%. `COc1cccc(CNCCSc2nnnn2C)c1OCc1ccccc1F` was tested, and the survival was inactive: 70%. `CCc1ccc2oc(C(=O)Nc3sc4c(c3C(=O)NC)CCCC4)cc(=O)c2c1` was tested, and the survival was inactive: 85%. `CCOc1ccc(C(=O)Nc2cccc(OCc3cc(=O)n4cc(C)sc4n3)c2)cc1` was tested, and the survival was inactive: 80%. With `CCCCOC(=O)c1cccc(NC(=O)c2cc3ccccc3o2)c1` the survival was active: 0%. `O=C(Nc1ccc(Cl)cc1F)c1cc(S(=O)(=O)NCc2ccc3c(c2)OCO3)ccc1F` was tested, and the survival was inactive: 90%. With `O=C(NCCc1ccccc1)c1ccc(CSc2nc3ccncc3n2Cc2ccc(F)cc2)cc1` the survival was inactive: 85%. In the case of `CCCCn1cc(S(=O)(=O)c2cccc(C)c2)c(=O)c2cc(F)c(N3CCOCC3)cc21`, the survival is reported as inactive: 84%. With `CN(C)CCn1c2c(c(SCC(=O)Nc3ccc(F)cc3F)nc1=O)CCC2` the survival was inactive: 83%. In the case of `CCOC(=O)c1c(S(=O)(=O)N2CCCC(C(=O)N3CCN(c4ccccc4)CC3)C2)c(C)n(C)c1C` (centres undefined), the survival is reported as inactive: 73%. For `Cc1ccccc1OC(=O)CSc1nnc(-c2cccs2)o1`, the survival was inactive: 85%. `Cc1ccc(C)c(Cn2nc(-c3cc(C)ccc3C)ccc2=O)c1` was tested, and the survival was inactive: 76%. In the case of `CC1(C)C=Cc2c(nc3ccccc3c2N)C1`, the survival is reported as inactive: 114%. `CC(C)(C)c1nc(CN2CCOCC2)cc(CN2CCOCC2)c1O` was tested, and the survival was inactive: 103%. `CCOC(=O)c1cc2c(=O)n3ccccc3nc2n(CC2CCCO2)c1=NC(=O)c1ccc(C)cc1` (centres undefined) was tested, and the survival was inactive: 118%. In the case of `O=[N+]([O-])c1ccc(C(c2sc3nc(-c4ccco4)nn3c2O)N2CCN(c3cccc(Cl)c3)CC2)cc1` (centres undefined), the survival is reported as inactive: 60%. For `CCOc1ccc(S(=O)(=O)NCC(c2ccco2)S(=O)(=O)c2ccc(F)cc2)cc1` (centres undefined), the survival was inactive: 90%. For `COc1cccc(N2CC(NC(=O)c3ccc(S(=O)(=O)N4CCCCC4)cc3)CC2=O)c1` (centres undefined), the survival was inactive: 83%. In the case of `COc1ccc(-c2nc3ccccc3o2)cc1NC(=O)COc1ccc(C(C)(C)C)cc1`, the survival is reported as active: 2%. For `Cc1ccc(CN2C(=O)C3(c4ccccc42)N(c2cccc(C(F)(F)F)c2)C(=O)CS3(=O)=O)cc1` (centres undefined), the survival was inactive: 68%. With `CCc1cccc(NC(=O)Cn2nc(-c3cc(C)ccc3C)ccc2=O)c1` the survival was inactive: 63%. In the case of `Cc1nnc(NCc2ccccc2)c2c1nnn2Cc1ccc(F)cc1`, the survival is reported as inactive: 115%. For `COc1cc(NC(=O)c2cc3c(=O)n(Cc4cccs4)ccc3nc2C)cc(OC)c1OC`, the survival was active: -2%. `CC(Oc1ccccc1Cl)C(=O)N1CCN(CCc2ccccn2)CC1` (centres undefined) was tested, and the survival was inactive: 112%. With `CCOC(=O)CN1CCN(c2ccc(F)cc2)CC1` the survival was inactive: 115%. `O=c1cc(CSc2n[nH]c(-c3ccccc3)n2)[nH]c2ccccc12` was tested, and the survival was inactive: 152%. With `COc1ccccc1NC(=O)CSc1oc(-c2cccs2)nc1S(=O)(=O)c1ccccc1` the survival was inactive: 67%. For `CC(Sc1nc(=O)cc(N)n1CCc1ccccc1)C(=O)Nc1ccccc1C#N` (centres undefined), the survival was inactive: 75%. For `O=C(CN1C(=O)COc2ccc(S(=O)(=O)N3CCOCC3)cc21)N1CCN(c2ccc(F)cc2)CC1`, the survival was inactive: 78%. With `COc1ccc(OC)c(NC(=O)CN2C(=O)CCc3cc(S(=O)(=O)N4CCCCC4)ccc32)c1` the survival was active: 0%. In the case of `O=C(NC1CCCCC1)c1ccc2c(c1)N(Cc1ccc(Cl)cc1)C(=O)c1ccccc1S2(=O)=O`, the survival is reported as inactive: 104%. `CC(=O)N1c2c(cc(Br)cc2S(=O)(=O)N2CCN(c3cccc(Cl)c3)CC2)CC1C` (centres undefined) was tested, and the survival was inactive: 75%. `COc1cccc(N2CCN(C(=O)c3cnn(-c4ccc(C)cc4C)c3C3CCN(C(=O)OC(C)(C)C)CC3)CC2)c1` was tested, and the survival was inactive: 78%. With `Cc1ccc(-c2ccc(C#N)c(=O)n2CC(=O)N2CCC(C(N)=O)CC2)cc1` the survival was inactive: 91%. In the case of `CCOc1ccc(C(NC(=O)c2ccco2)c2ccc(OC)c(OC)c2)cc1` (centres undefined), the survival is reported as inactive: 106%. For `CC(=O)c1cccc(NS(=O)(=O)c2ccc3c(c2)NC(=O)CC(=O)N3)c1`, the survival was inactive: 96%. In the case of `Cc1ccc(C)c(N2CCN(C3=C(c4ccccc4)C(=O)c4ccccc43)CC2)c1`, the survival is reported as inactive: 88%.
